Test results from PubChem BioAssay AID651661 (Broad Institute, 2012).
Out of some 350,000 compounds screened, about 2,300 (0.66%) were called active. Inconclusive results, whose numbers are uncertain, are shown with a selection of clear calls.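 The calls were made as follows: active = mean inhibition of at least 50% after viability correction, with every replicate also passing that limit; inconclusive = mean reaches 50% but only one of two replicates passes; inactive = the rest.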

test: blockers of EWS/Fli transcriptional output – A673 cells, NR0B1 luciferase, luminescence, MLPCN library, primary screen (AID 651661); conditions: A673 NR0B1-luciferase reporter, viability-normalised; at 12.6 µM; active compounds read high;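 also: firefly luciferase signal divided by Alamar Blue viability fluorescence both relative to DMSO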

Question: Which inhibition does the source give for `COc1ccc2cc1Oc1ccc(cc1)C[C@H]1c3cc(c(OC)cc3CCN1C)Oc1c(OC)c(OC)cc3c1[C@H](C2)N(C)CC3` here?
Answer: active: 57.5%

Question: With `CCCCOc1ccc(CSCCNC(=S)Nc2ccccc2)cc1` as the compound, how does the inhibition read?
Answer: inconclusive: 52.7%

Question: With `CN1/C(=C/C=C(C#N)C#N)C(C)(C)c2ccccc21` as the compound, how does the inhibition read?
Answer: inactive: -17.1%

Question: With `C[C@@H]1CN([C@H](C)CO)C(=O)c2cc(-c3ccccc3F)cnc2O[C@@H]1CN(C)Cc1ccc(F)cc1` as the compound, how does the inhibition read?
Answer: inactive: -7.64%

Question: For `CSc1cccc(N=C2C(=O)Nc3ccccc32)c1`, which inhibition is on record?
Answer: inconclusive: 54.1%

Question: For `O=C1NC(=O)C2(COC(c3cccc([N+](=O)[O-])c3)OC2)S1` (stereo not drawn), which inhibition is on record?
Answer: inactive: 3.51%

Question: Which inhibition does the source give for `O=C(Nc1nc2cc3c(cc2s1)OCCO3)c1ccco1` here?
Answer: active: 87%

Question: For `COc1ccc(C[C@H]2CN3C(=NC[C@@H]3Cc3ccccc3)N2CCNC(=O)CCC2CCCCC2)cc1`, which inhibition is on record?
Answer: inconclusive: 54.8%

Question: Which inhibition does the source give for `COCCNc1nc(Nc2ccc(C)cc2C)c2sccc2n1` here?
Answer: inconclusive: 50%

Question: For `O=C1CC(c2cccc([N+](=O)[O-])c2)c2cc3c(cc2N1)CCC3` (stereo not drawn), which inhibition is on record?
Answer: inconclusive: 51.6%

Question: Which inhibition does the source give for `Cc1cccc(S(=O)(=O)N2CC[C@H]3[C@@H](CO)N(C)c4ccc(-c5cccc(C#N)c5)cc4[C@H]32)c1` here?
Answer: inactive: 8.84%

Question: For `CCc1ccc(C(CNc2nc(C(F)(F)F)nc3ccccc23)N(C)C)cc1` (stereo not drawn), which inhibition is on record?
Answer: inconclusive: 50.7%

Question: Which inhibition does the source give for `CC(=O)N1CCCCN2[C@H](C1)[C@H](c1ccc(-c3cccc(C)c3)cc1)[C@@H]2CO` here?
Answer: inactive: 7.04%

Question: For `C(=N\Nc1ccc2ccccc2n1)/c1ccc2c(c1)OCO2`, which inhibition is on record?
Answer: active: 59.1%

Question: With `COc1ccccc1/C=C/C=N/NC(=O)CCn1cnc2ccccc21` as the compound, how does the inhibition read?
Answer: inactive: 47.2%

Question: With `C[C@@H]1CN([C@H](C)CO)C(=O)c2cc(N(C)C)ccc2O[C@@H](C)CCCCO[C@H]1CN(C)Cc1ccc(C(F)(F)F)cc1` as the compound, how does the inhibition read?
Answer: inconclusive: 53.5%

Question: Which inhibition does the source give for `O=C(C[C@H]1CC[C@@H]2[C@H](COC[C@@H](O)CN2C(=O)c2ccncc2)O1)NC1CCC1` here?
Answer: inactive: -4.81%

Question: For `COc1ccc(OC)c(-c2nnc3n2N=C(c2ccc(OC(F)F)c(OCC4CC4)c2)CS3)c1`, which inhibition is on record?
Answer: inconclusive: 50.2%

Question: With `O=C1C=CC(=O)c2c(O)c(N3CCN(CCOCCO)CC3)c(Br)c(O)c21` as the compound, how does the inhibition read?
Answer: inconclusive: 50.8%

Question: For `COc1ccc(NC(=S)NCCCN2CCN(C3CCCCC3)CC2)cc1`, which inhibition is on record?
Answer: inactive: -1.58%

Question: With `O=C(Nc1ccc(F)cc1)N1CCCCN2[C@H](CO)[C@@H](c3ccc(C4=CCCCC4)cc3)[C@H]2C1` as the compound, how does the inhibition read?
Answer: inconclusive: 53.7%

Question: Which inhibition does the source give for `CCC(=O)Nc1ccc2c(c1)C(=O)N(C)C[C@@H](OC)[C@@H](C)CN(C(=O)CC1CC1)[C@H](C)CO2` here?
Answer: inactive: -5.73%

Question: With `CCOc1cc(C(=O)OCC(=O)Nc2ncc(Cl)c(C)c2Cl)ccc1OCC(=O)N1CCOCC1` as the compound, how does the inhibition read?
Answer: inconclusive: 50.2%

Question: Which inhibition does the source give for `COc1ccc(Oc2ccc(/C=C/C(=O)c3ccc(O)cc3)cc2[N+](=O)[O-])cc1` here?
Answer: active: 74.6%

Question: Which inhibition does the source give for `C[C@H]1CN([C@@H](C)CO)S(=O)(=O)c2ccc(-c3ccccc3)cc2O[C@H]1CN(C)C(=O)Nc1ccccc1F` here?
Answer: inactive: -2.55%

Question: Which inhibition does the source give for `Cc1ccc(NC(=O)C[n+]2cc(-c3ccccc3)n3c2CCC3)c(C)c1` here?
Answer: inconclusive: 50.1%

Question: With `COC(=O)C1=C(C)N(Cc2ccccc2)C(=NCCc2c[nH]c3ccccc23)N[C@H]1c1cccc(F)c1` as the compound, how does the inhibition read?
Answer: inconclusive: 50.8%

Question: With `C[C@@H]1CCCCO[C@H](CN(C)Cc2ccc3c(c2)OCO3)[C@H](C)CN([C@@H](C)CO)C(=O)c2cc(NC(=O)Nc3ccc(C(F)(F)F)cc3)ccc2O1` as the compound, how does the inhibition read?
Answer: active: 75.4%

Question: Which inhibition does the source give for `COc1ccccc1CCNC(=O)CNC(=O)Cc1cccc2ccccc12` here?
Answer: inconclusive: 57.3%

Question: Which inhibition does the source give for `O=c1c(Br)c(Br)cnn1-c1ccccc1` here?
Answer: inconclusive: 51.3%

Question: With `CC(C)Oc1ccc(C(CCNCc2ccc(O)cc2)c2ccccc2)cc1` (stereo not drawn) as the compound, how does the inhibition read?
Answer: inconclusive: 52.3%

Question: For `Cc1nc2ncccn2c1-c1csc(Nc2ccc(N(C)C)cc2)n1`, which inhibition is on record?
Answer: inconclusive: 50.2%

Question: With `COc1ccc(NC(=O)Nc2ccc3c(c2)C(=O)N([C@H](C)CO)C[C@@H](C)[C@@H](CN(C)Cc2ccccc2)OCCCC[C@H](C)O3)cc1` as the compound, how does the inhibition read?
Answer: inconclusive: 50.4%

Question: For `C[C@H](CO)N1C[C@H](C)[C@@H](CN(C)Cc2ccc(Cl)c(Cl)c2)Oc2ccc(NC(=O)CCCCCC(=O)Nc3ccccc3N)cc2CC1=O`, which inhibition is on record?
Answer: inconclusive: 50.2%

Question: With `C[C@@H]1CCCCO[C@H](CN(C)C(=O)NC2CCCCC2)[C@H](C)CN([C@H](C)CO)C(=O)c2cc(NS(=O)(=O)c3ccc(F)cc3)ccc2O1` as the compound, how does the inhibition read?
Answer: inconclusive: 54.7%

Question: For `Cc1ccc(S(=O)(=O)Nc2cccc(C(=O)NCc3cccnc3)c2)cc1F`, which inhibition is on record?
Answer: inconclusive: 51.6%

Question: Which inhibition does the source give for `C/C=C/c1ccc(C2[C@@H]3CN(C(=O)Nc4ccc(C(F)(F)F)cc4)C[C@H]2N3)cc1` (stereo partly drawn) here?
Answer: inconclusive: 50.4%

Question: Which inhibition does the source give for `COc1ccc(C(=O)Nc2ccc3ncccc3c2)cc1` here?
Answer: active: 58%

Question: With `C[C@H]1CN([C@@H](C)CO)C(=O)c2cc(-c3cccc(C#N)c3)cnc2O[C@@H]1CN(C)C(=O)c1cnccn1` as the compound, how does the inhibition read?
Answer: inactive: 8.24%

Question: With `O=C(CSc1nnc(-c2ccccc2Cl)o1)Nc1ccccn1` as the compound, how does the inhibition read?
Answer: inconclusive: 50.5%

Question: With `COc1ccc2c(c1)C(C)=CC(C)(C)N2S(=O)(=O)c1ccc(C)cc1` as the compound, how does the inhibition read?
Answer: inconclusive: 53%

Question: With `COc1ccc(/C=N/NC(=O)CCn2cnc(-c3ccccc3)c2-c2ccccc2)cc1` as the compound, how does the inhibition read?
Answer: active: 51.4%

Question: With `O=C(/C=C/c1ccccc1)NC(=S)NNC(=O)c1cnccn1` as the compound, how does the inhibition read?
Answer: inactive: 23.1%

Question: Which inhibition does the source give for `O=C(Nc1cccc(O)c1)c1cc(-c2ccccc2Cl)on1` here?
Answer: inconclusive: 50%

Question: Which inhibition does the source give for `CCOc1ccc(NC(=O)COc2ccc(C(=O)NCCc3ccccc3)cc2)cc1` here?
Answer: inactive: -8.94%

Question: For `Cc1cccc(CN2C(=O)/C(=C\c3ccc(C(=O)NCCCN4CCN(C)CC4)cc3)Oc3ccccc32)c1`, which inhibition is on record?
Answer: active: 65%

Question: With `CCOC(=O)c1cc(NC(=O)Cc2ccc(S(=O)(=O)N3CCOCC3)s2)cc(C(=O)OCC)c1` as the compound, how does the inhibition read?
Answer: inconclusive: 58.5%

Question: For `O=C1c2ccccc2C(c2nnnn2-c2ccc3c(c2)OCCO3)N1CCc1ccccc1F` (stereo not drawn), which inhibition is on record?
Answer: inactive: -13.7%
